Data: the supplement of paper PMC4967469

Columns and labels:
Test in all cases: Viability of human cancer cell lines after 72 h of drug (GDSC screen)
JNK-9L = compound: Fc1cc(-c2ccnc(Nc3ccc(-n4cnc(N5CCOCC5)n4)cc3)n2)cc(N2CCOCC2)c1 [JNK-9L]; settings: top dose 5.12 µM; top dose inferred
Method: (§1)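 Human cancer cell lines in 384-well plates, medium with 10% serum, drug for 72 h over a 256-fold dose range (nine 2-fold or five 4-fold steps up to the top dose). Adherent lines were fixed and stained with the nucleic acid dye Syto60, suspension lines read with resazurin; signal relative to control wells, capped at 0 and 100%. One two-parameter sigmoid per drug and line, fitted in a mixed model over all curves with the slope shared within a line.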

CUDC-101 = compound: C#Cc1cccc(Nc2ncnc3cc(OC)c(OCCCCCCC(=O)NO)cc23)c1 [CUDC-101]; settings: top dose 5.12 µM; top dose inferred
Method: as §1

5-Fluorouracil = compound: O=c1[nH]cc(F)c(=O)[nH]1 [5-Fluorouracil]; settings: top dose 32 µM; top dose inferred
Method: as §1

RDEA119 = compound: COc1cc(F)c(F)c(Nc2ccc(I)cc2F)c1NS(=O)(=O)C1(C[C@H](O)CO)CC1 [RDEA119]; settings: top dose 5 µM, top dose inferred
Method: as §1

OSU-03012 = compound: NCC(=O)Nc1ccc(-n2nc(C(F)(F)F)cc2-c2ccc3c(ccc4ccccc43)c2)cc1 [OSU-03012]; settings: top dose 16 µM; top dose inferred
Method: as §1

QS11 = compound: OC[C@H](Cc1ccccc1)Nc1nc(Oc2ccc3c(c2)CCC3)nc2c1ncn2Cc1ccc(-c2ccccc2)cc1 [QS11]; settings: top dose 10.24 µM
Method: as §1

AC220 = compound: CC(C)(C)c1cc(NC(=O)Nc2ccc(-c3cn4c(n3)sc3cc(OCCN5CCOCC5)ccc34)cc2)no1 [AC220]; settings: top dose 1.024 µM; top dose inferred
Method: as §1

Cell Line	AUC (JNK-9L)	IC50 (JNK-9L) [nM]	AUC (CUDC-101)	IC50 (CUDC-101) [nM]	AUC (5-Fluorouracil)	IC50 (5-Fluorouracil) [nM]	AUC (RDEA119; screen: GDSC drug entry 1014)	IC50 (RDEA119; screen: GDSC drug entry 1014) [nM]	AUC (RDEA119; screen: GDSC drug entry 1526)	IC50 (RDEA119; screen: GDSC drug entry 1526) [nM]	AUC (OSU-03012)	IC50 (OSU-03012) [nM]	AUC (QS11)	IC50 (QS11) [nM]	AUC (AC220)	IC50 (AC220) [nM]
LCLC-97TM1 (large cell lung carcinoma, adherent)	0.409	176	0.548	439	0.529	2420	0.496	304	0.775	2180	0.646	2640	0.823	6790	0.979	> 1020
LCLC-103H (large cell lung carcinoma, adherent)	0.356	133	0.581	521	0.817	15700	0.986	> 5000	0.99	> 5000	0.616	2020	0.67	1810	0.988	> 1020
LN-18 (glioma, adherent)	0.567	470	0.797	1910	0.991	> 32000	0.911	4730	0.973	> 5000	0.855	9090	0.949	> 10200	0.994	> 1020
LN-229 (glioma, adherent)	0.767	1900	0.684	1040	0.967	> 32000	0.809	2600	0.819	2830	0.845	11500	0.988	> 10200	0.966	> 1020
LN-405 (glioma, adherent)	0.633	819	0.744	1960	0.973	> 32000	0.877	> 5000	0.953	> 5000	0.869	> 16000	0.979	> 10200	0.968	> 1020
LNCaP-Clone-FGC (prostate, adherent)	0.579	544	0.406	170	0.758	12600	0.984	> 5000	0.979	> 5000	0.839	13200	0.851	9570	0.94	> 1020
LNZTA3WT4 (glioma, adherent)	0.581	529	0.978	> 5120	0.893	> 32000	0.865	4250	0.87	4510	0.897	> 16000	0.983	> 10200	0.987	> 1020
LOU-NH91 (lung squamous cell carcinoma, adherent)	0.881	> 5120	0.602	625	0.964	> 32000	0.876	> 5000	0.937	> 5000	0.898	> 16000	0.98	> 10200	0.984	> 1020

By IC50 is meant the dose at which the fit gives 50% viability; fits outside the tested doses are given as limits. The AUC spans the tested range (256-fold, ending at the top dose) of the same fit: 1 means no effect, lower means more sensitive. For some assays here: Where the top dose is marked as inferred, it was derived from the fitted curves, not read from the paper. For some assays here: An entry number marks a drug with two screens in the source, which often give different values.
